# In ChEMBL document CHEMBL4888484, “Replenishing the malaria drug discovery pipeline: Screening and hit evaluation of the MMV Hit Generation Library 1 (HGL1) against asexual blood stage Plasmodium falciparum ,using a nano luciferase reporter read-out” (2022):
# About 540 (0.36%) of roughly 150,000 compounds showed an effect of 50% or more. Some of the results follow.
# Tested on: Plasmodium falciparum
# Assay: Primary screen in NF54 nanoGlo assay, in single point, at 2uM, 72h; a lower Z score goes with more inhibition
# Type: functional, Erythrocyte
# Conditions: timepoint 72 hour
Compound,% Inhibition [%],Z score
Cc1ccc(CCN(C[C@H]2CCCO2)S(N)(=O)=O)cc1,2,-0.23
CCCCN1CCN([C@@H](C(=O)NCc2ccccn2)c2ccccc2)C(=O)C1=O,-11,2.09
CCc1ccccc1NC(=O)N(CC(=O)N1c2ccccc2-n2cccc2[C@H]1c1ccccc1)C(C)C,-4,0.86
COC(=O)c1cc(C)ccc1OC(=O)CN(C)S(C)(=O)=O,-13,1.28
COc1cccc(-c2nc3ccc(C(=O)NCCc4nncn4C)cc3o2)c1,-4,0.76
Cn1nc(C2CC2)cc1CNC(=O)C(C)(C)c1cccc(Cl)c1F,0,0.04
Cc1ccc(C(=O)Nc2cccc3[nH]cnc23)s1,-8,1.19
O=C(Nc1ccc(CCN2CCCC2)cc1)[C@@H]1CCCc2ccccc21,4,-0.7
COCCn1nnnc1[C@]1(N2CCCC2)CCN(C(=O)CCCc2ccccc2)C1,-3,0.56
O=C(CCC1CCN(Cc2ccc3c(c2)OCCO3)CC1)NCc1cccc(Cl)c1,-9,1.08
CC[C@@H](c1nc(-c2csc(C)n2)nn1C1CCN(C)CC1)n1cccn1,3,-0.39
COc1ccc(CN2Cc3cc(NS(=O)(=O)c4ccc(Cl)cc4)ccc3O[C@@H](C)C2=O)c(OC)c1,-7,0.83
Cc1cccc(NC(=O)c2cc3c(ccc4ccccc43)o2)c1C,2,-0.31
Cc1nonc1CN(C)C(=O)C[C@@H](c1cccc(O)c1)c1ccccc1Cl,-8,0.66
Clc1snnc1CN1CC(OCCCOc2ccccc2)C1,-8,1.49
COc1ccc([C@@H](CC(N)=O)c2c(O)n[nH]c2Cc2ccc3c(c2)CCO3)cc1,0,0.08
Cc1cc(=O)c(-c2noc([C@@]34CCCC[C@@H]3NCC4)n2)c2n1CCC2,-4,0.75
CC(C)[C@H](CNC(=O)N1CC2(CCOCC2)C1)c1cccnc1,9,-1.64
COc1ccccc1C(=O)N1CCN(Cc2sc(C)nc2C)CC1,3,-0.39
C=CCn1c(C(=O)NCCN2CCCCC2)cc2cc(S(=O)(=O)N(C)C)ccc21,-14,1.51
COc1ccccc1CNC(=O)[C@]1(C)Cn2c(cc3ccccc32)C(=O)N1Cc1ccccc1Cl,1,-0.12
Cc1cccc(NC2CCN(CC(=O)NC(C3CC3)C3CC3)CC2)n1,-8,1.09
